# Test results from PMC12040169 (PLOS Biology, 2025).
# Some of the results follow.
# Tested on: T1, C. trachomatis L2/434/Bu expressing GFP (CTL2-GFP)
# T1 construct: L2/434/Bu GFP intracellular growth in HeLa cells
# Design: species or system HeLa; C. trachomatis total inclusion area by high-content imaging, normalised to DMSO
# Settings: total inclusion area; 28.5 h, 10 µM; inhibitor
# How it was run: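 After bulk GFP and resorufin fluorescence reads, cells were fixed, stained with Hoechst and imaged by high-content microscopy. Inclusion area and number (GFP) stood in for chlamydial growth, nuclei count (Hoechst) for host cell viability. MICs were derived as for the bulk readout.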
row,Compound,% of control remaining
1,CCc1nn2c(O)cc(C)nc2c1-c1cccs1 [CBK283860],101.425
2,O=C(O)CCC(=O)N1CCN(Cc2ccc(Cl)cc2)CC1 [CBK286852],65.9138
3,CC(CCc1ccccc1)NC1CCCc2c1[nH]c1ccc([N+](=O)[O-])cc21 (stereo not drawn) [CBK262875],25.0482
4,CCCCSc1nc(N)cc(N2CCOCC(CN(C)C)C2)n1 (stereo not drawn) [CBK306659],23.2121
5,Cc1cc(Cc2ccccc2Cl)cc(C2CCCN(CC(=O)N(C)C)C2)n1 (stereo not drawn) [CBK286262],82.405
6,COc1ccc2[nH]nc(CN3CCCC(c4cc(O)nc(C)n4)C3)c2c1 (stereo not drawn) [CBK306703],84.4461
7,N#CC(c1ccc(O)cc1)N1CCCCC1 (stereo not drawn) [CBK028556],112.191
8,COc1cc(-c2nccnc2NCc2ccccn2)cc(OC)c1OC [CBK036936],72.7874
9,COc1cc(CN2CCN(C/C=C/c3ccccc3)CC2)c([N+](=O)[O-])cc1OC [CBK261550],101.185
10,CC1CC(C)CN(C(=O)NCCCCCC(=O)O)C1 (stereo not drawn) [CBK286793],107.264
11,COc1ccc(-c2cnc3[nH]c(=O)n([C@@H](CO)C(C)C)c3n2)c(OC)c1OC [CBK064774],94.394
12,O=C(Nc1cccc(C(=O)O)c1)/C(=C\c1ccc2c(c1)OCO2)NC(=O)c1ccc(Br)o1 [CBK263720],118.67
13,O=C(Nc1cccc(C(F)(F)F)c1)c1c(O)c2ccccc2[nH]c1=O [CBK159985],54.4913
14,CCc1nc(CN2CCCC(NCc3cccc(C(N)=O)c3)C2)no1 (stereo not drawn) [CBK306254],26.7452
15,O=C(C1=C(O)C(=O)N(Cc2cccnc2)C1c1cccc([N+](=O)[O-])c1)c1ccccc1 (stereo not drawn) [CBK263383],99.1048
16,CC(=O)N1N=C(c2cccnc2)OC1(C)C [CBK023619],98.4322
17,Cc1nc(CC(=O)N2[C@H]3CCCCCN(C)[C@@]3(C)C[C@H]2c2ccccc2)cs1 [CBK286104],96.1525
18,Cc1cccc(-c2ncc(C(=O)NCCc3c[nH]cn3)cc2-c2ccncc2)c1 [CBK036678],83.908
19,CC1CCCN(Cc2c(C3CCNCC3)[nH]c3ncccc23)C1 (stereo not drawn) [CBK285078],78.5883
20,Cn1cc(C(=O)N2CCc3ccccc3C2)c2ccccc21 [CBK200338],87.872
21,O=C(CN1CCC(c2ccncc2)CC1)N1CCCCC1 [CBK283504],95.7931
22,O=C(NC1CCN(CC(F)(F)F)CC1)c1cnc(-c2ccccc2)s1 [CBK305474],88.8598
23,CN(C)CCNC(=O)c1ccc(-c2cnc3[nH]c(=O)n(CC4CC4)c3n2)cc1 [CBK064578],123.28
24,COc1ccc(-n2nc(N)c3c(=O)oc(N(C)C)nc32)cc1 [CBK007445],124.29
25,Cc1cc(C(=O)Nc2ccc(-c3nc4ccccc4s3)c(O)c2)ccc1[N+](=O)[O-] [CBK262820],84.0205
26,CC1CCCCN1Cc1nc2c(c(=O)n(C)c(=O)n2C)n1CCCc1ccccc1 (stereo not drawn) [CBK269326],106.419

row,Compound,% of control remaining
1,S=c1cc(SCc2ccccc2Cl)nc[nH]1 [CBK288496],88.739
2,CC(C)(c1ccc(Oc2ccc3c(c2)C(=O)N(c2nccs2)C3=O)cc1)c1ccc(Oc2ccc3c(c2)C(=O)N(c2nccs2)C3=O)cc1 [CBK262258],116.995
3,COCC(C)NC(=O)c1cc(-c2cccs2)nc2onc(C)c12 (stereo not drawn) [CBK306473],41.7565
4,O=C(O)c1sc2c(ccc3ccccc32)c1Br [CBK018387],70.854
5,Cc1c(NC(=O)CN(c2ccccc2)S(=O)(=O)N(C)C)cccc1[N+](=O)[O-] [CBK269012],85.2365
6,Cc1ccccc1-c1cc(=O)[nH]c(Nc2ccccc2)n1 [CBK288142],57.5541
7,O=C(O)CC(=Cc1csc(-c2ccc(Cl)cc2)n1)c1nc2ccccc2o1 [CBK297112],90.579
8,COc1cccc(CC(=O)N2CCOc3ncccc32)c1 [CBK305235],117.796
9,CC1CCCC(C)N1S(=O)(=O)c1ccc(NC(=O)CCn2cnc3ccccc3c2=O)cc1 (stereo not drawn) [CBK267643],118.355
10,Cc1ccc(C)c(Oc2coc3cc(OCC(=O)Nc4ccccc4C(C)C)ccc3c2=O)c1 [CBK265906],127.431
11,CNC(=O)c1sc2ccccc2c1C1CCN(Cc2nc3ccccc3n2C(C)C)C1 (stereo not drawn) [CBK285929],95.3864
12,Cc1ccc2oc(-c3cccc(NC(=O)c4ccc(-c5ccc([N+](=O)[O-])cc5)o4)c3C)nc2c1 [CBK263437],112.222
13,CC(=O)Nc1ccc(CN(CCO)C2CCc3ccccc32)cc1 (stereo not drawn) [CBK304104],41.1354
14,Cc1cccc(NC2=NC(=O)/C(=C\c3ccc(Cl)cc3)S2)c1C [CBK263619],85.1253
15,Cc1ccccc1OC(C)C(=O)NCCCc1ccccc1 (stereo not drawn) [CBK268571],113.143
16,COc1cc(/C=N/NC(=O)c2ccccn2)ccc1OC(=O)c1cccc2ccccc12 [CBK262110],113.088
17,O=C(c1ccc(F)cc1)C1CCN(C/C=C/c2ccccc2)CC1 [CBK149124],93.1557
18,CCc1ccc(CNC(=O)Cn2cc(-c3ccc(CN4CCC(CO)CC4)cc3)nn2)cc1 [CBK167551],45.4106
19,O=C(CN(c1ccc(Cl)cc1)S(=O)(=O)c1ccccc1)Nc1ccc(F)cc1 [CBK264013],105.808
20,CCOC(=O)c1csc(C2CCCN2C(=O)CC2C=CCCC2)n1 (stereo not drawn) [CBK305407],54.6621
21,CCN(CC)C(=O)Cn1c(=O)n(Cc2ccco2)c2ncccc21 [CBK284016],99.4817
22,COCCNc1nccnc1-c1ccsc1 [CBK038008],96.3472
23,COc1ccc(CC(CC(=O)O)C(=O)Nc2ccc(OC)cc2)cc1 (stereo not drawn) [CBK286975],101.344
24,CCN(CC)C(=O)C1CCCN(C(=O)NCCCN2CCN(C)CC2)C1 (stereo not drawn) [CBK156115],89.7525
25,O=C1c2ccc(Oc3cccc(Oc4ccc5c(c4)C(=O)N(c4ccccn4)C5=O)c3)cc2C(=O)N1c1ccccn1 [CBK261397],99.8525
26,O=C(N1CCCCCC1)N1CCN(S(=O)(=O)N2CCOCC2)CC1 [CBK268681],108.683

row,Compound,% of control remaining
1,Cc1ccc(NC(=O)COc2ccccc2)c(NC(=O)c2ccccc2I)c1 [CBK266793],93.2609
2,O=C(c1cc2ncc(Br)cn2n1)N1CCOCC1 [CBK058513],69.9165
3,COCCCOc1nccnc1NC(C)C [CBK115876],117.762
4,Fc1ccc2nc(Nc3nnc(-c4ccco4)o3)sc2c1 [CBK287488],117.065
5,COc1ccc(NC(=O)c2cc(C(F)(F)F)cc(C(F)(F)F)c2)cn1 [CBK057634],38.9249
6,O=C(Cn1ncn2c(cc3ccsc32)c1=O)N1CCCCC1 [CBK284195],76.2594
7,Cc1cccc(-c2cncc(C3CCCN(C(=O)Cc4c[nH]c5ccccc45)C3)n2)c1 (stereo not drawn) [CBK286149],124.602
8,COc1ccc([N+](=O)[O-])cc1CSc1nnc(-c2ccco2)n1C [CBK269671],81.5503
9,COc1ccc2sc(Br)c(C(=O)O)c2c1 [CBK019180],59.2227
10,C=CCn1c(Cc2csc(NC(=O)c3cccc(NC(C)=O)c3)n2)n[nH]c1=S [CBK297891],97.374
11,O=C(NCCc1cccs1)Nc1ccc(Cl)cc1C(F)(F)F [CBK044825],71.1309
12,CC(=O)Nc1ccc(S(=O)(=O)Nc2ccc(-c3cn4cccnc4n3)cc2)cc1 [CBK268671],53.334
13,COc1ccccc1/C=C/C1=NN(c2ccc(F)cc2)C(c2ccccc2OC)C1 (stereo not drawn) [CBK262303],57.8199
14,O=C(C1CC=CCC1)N1CCC(c2[nH]ncc2-c2ccncc2)CC1 (stereo not drawn) [CBK284212],92.2554
15,Cc1c(Cl)cccc1NC(=O)CSc1nnc(Cc2cccc3ccccc23)n1-c1ccccc1 [CBK266042],105.124
16,CSCCC(=O)N1CCCC2(CCN(C(=O)c3cc(F)c(F)cc3F)C2)C1 (stereo not drawn) [CBK131557],93.2069
17,N#Cc1ccc(NC(=O)Nc2ccccc2)cc1 [CBK086045],55.6296
18,CCC(C)NC(=O)Cn1c(C2CCCNC2)cc2cccnc21 (stereo not drawn) [CBK285085],113.725
19,Cc1ccc(C(=O)N2CC=C(c3c[nH]c4ncccc34)CC2)cn1 [CBK297889],91.6414
20,CCOC(=O)C1(C2CCCCC2)CCN(C(=O)C2COc3ccccc3O2)CC1 (stereo not drawn) [CBK136925],91.4626
21,Cc1ccc(CNC(=O)N2CCC3(CC2)OCCc2c3[nH]c3ccccc23)cc1 [CBK047121],123.47
22,Cc1ccc(-c2cnc3ccccc3n2)cc1NC(=O)c1ccccc1S(=O)(=O)c1ccc([N+](=O)[O-])cc1 [CBK267690],96.8476
23,O=C(CSc1nnc(-c2ccco2)o1)Nc1cccc2nsnc12 [CBK268006],97.0153
24,O=C(Nc1ccc(NC(=O)c2cc3ccccc3o2)cc1)c1ccc(-c2ccccc2)cc1 [CBK268887],103.979
25,COc1ccc(C(=O)N2CCC[C@H]3NC(=O)COc4ccccc4C(=O)N[C@@H]4CCOC[C@@H]4C/C=C/C[C@@H]32)cc1 [CBK292194],89.0301
26,CC(C)(C)OCc1[nH]nc(O)c1Cc1c(Cl)cccc1Cl [CBK089569],80.7393
